The text below walks through data of paper PMC4336329 (PLoS ONE, 2015).

Screen size: about 310,000 compounds; about 2,200 (0.71%) showed an effect of 50% or more. Effects have a minus sign here. This is one part of the list.

Chain of human ether-à-go-go-related gene (hERG) potassium channel (Q12809 whole entry, looked up): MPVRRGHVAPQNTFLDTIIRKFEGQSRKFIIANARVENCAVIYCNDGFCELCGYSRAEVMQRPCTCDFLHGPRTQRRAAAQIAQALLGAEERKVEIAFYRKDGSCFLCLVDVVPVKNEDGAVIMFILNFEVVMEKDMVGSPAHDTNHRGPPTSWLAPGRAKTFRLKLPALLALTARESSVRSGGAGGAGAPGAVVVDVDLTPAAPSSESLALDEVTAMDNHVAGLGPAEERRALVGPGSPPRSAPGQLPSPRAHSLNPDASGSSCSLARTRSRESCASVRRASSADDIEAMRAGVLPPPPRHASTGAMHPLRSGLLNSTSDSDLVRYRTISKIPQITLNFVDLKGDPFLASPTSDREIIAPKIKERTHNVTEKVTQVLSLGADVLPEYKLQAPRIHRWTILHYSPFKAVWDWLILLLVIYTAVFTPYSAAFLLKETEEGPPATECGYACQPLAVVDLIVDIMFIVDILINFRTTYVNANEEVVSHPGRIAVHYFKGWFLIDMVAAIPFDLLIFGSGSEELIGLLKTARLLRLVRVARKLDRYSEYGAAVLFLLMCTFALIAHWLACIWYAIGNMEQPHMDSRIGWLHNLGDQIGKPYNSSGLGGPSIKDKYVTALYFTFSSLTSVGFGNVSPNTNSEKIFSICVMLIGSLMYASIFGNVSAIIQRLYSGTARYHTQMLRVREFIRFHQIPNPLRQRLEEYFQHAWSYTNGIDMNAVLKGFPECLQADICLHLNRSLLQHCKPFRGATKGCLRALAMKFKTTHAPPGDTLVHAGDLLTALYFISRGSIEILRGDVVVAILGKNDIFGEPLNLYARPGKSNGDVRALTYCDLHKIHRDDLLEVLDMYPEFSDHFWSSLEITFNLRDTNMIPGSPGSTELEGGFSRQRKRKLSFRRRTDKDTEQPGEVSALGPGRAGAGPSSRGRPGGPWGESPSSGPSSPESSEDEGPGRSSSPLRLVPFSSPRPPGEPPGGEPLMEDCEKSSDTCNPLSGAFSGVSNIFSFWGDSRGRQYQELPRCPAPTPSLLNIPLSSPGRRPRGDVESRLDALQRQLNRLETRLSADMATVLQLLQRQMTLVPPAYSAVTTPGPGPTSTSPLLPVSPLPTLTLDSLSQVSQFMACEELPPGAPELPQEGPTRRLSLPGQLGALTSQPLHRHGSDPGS

The test has as its target human ether-à-go-go-related gene (hERG) potassium channel (human, UniProt Q12809). The experiment in a line: primary screen, population patch clamp on CHO cells stably expressing hERG.
With `CC(C)Nc1nnc(SCC(=O)/C=C2\N(C)c3ccccc3C2(C)C)s1`, the “hERG current change (%, negative = inhibition) at 1uM” value amounted to 7.82%. As for `COC(=O)c1cccc(NC(=O)CCc2c(C)noc2C)c1`, the “hERG current change (%, negative = inhibition) at 1uM” value was found to be 10%. For `Cc1ccc(C2CC2C(=O)NNC(=S)Nc2ccc(Cl)cc2)cc1` (centres unmarked) the value was -0.0935%; for `CCOc1ccccc1/C=C/C(=O)c1ccc(Cl)cc1`, 2.61%. To `C=CCN1CC(c2nc3ccccc3n2CCOc2ccccc2)CC1=O` (centres unmarked) belongs 5.08%; to `OC1(C#CCN2CCCC2)c2ccccc2-c2ccccc21`, 4.56%. As to `CCN(CC)S(=O)(=O)c1ccc(C(=O)NNC(=O)c2csc(N3CCOCC3)n2)cc1`, the “hERG current change (%, negative = inhibition) at 1uM” value stood at 1.65%. On to `C[C@@H](C(=O)N1CCN(Cc2ccc3c(c2)OCO3)CC1)n1nnc2ccccc2c1=O`, for which the “hERG current change (%, negative = inhibition) at 1uM” value was found to be 16.2%. Consider `COc1ccc(C(NC(=O)/C=C/c2ccco2)c2ccc(OC)cc2)cc1`, for which the “hERG current change (%, negative = inhibition) at 1uM” value turned out to be 1.34%. Regarding `Cc1ccc(CC2CC(=O)N(CCc3ccccc3)C2=O)cc1` (centres unmarked), the “hERG current change (%, negative = inhibition) at 1uM” value came to 12.1%. Take `COc1ccc(/C=N/NC(=O)c2ccccc2)cc1CN1CCN(c2ccc(F)cc2)CC1`: the “hERG current change (%, negative = inhibition) at 1uM” value was -62.1%. To `O=C(COc1ccc(OCc2ccccc2)cc1)NC1CCOC1=O` (centres unmarked) belongs 7.32%; to `COC(=O)c1cccc(-c2ccc(/C=N/N3C(=O)C4C5C=CC(C6CC56)C4C3=O)o2)c1` (centres unmarked), 4.74%; to `CC(=O)CC(C)(C)S(=O)(=O)c1ccc(NC(C)=O)cc1`, 14.7%.

For the compound `Cc1ccc(N2CC(C(=O)Nc3ccc4c(c3)OCCO4)CC2=O)cc1C` (centres unmarked), the “hERG current change (%, negative = inhibition) at 1uM” value amounted to 14.3%. In the case of `O=C1OC(c2ccc(Cl)cc2)/C(=C(/O)c2ccccc2)C1=O` (centres unmarked), the “hERG current change (%, negative = inhibition) at 1uM” value is reported as 2.03%. With `O=C(O)c1cccc(NS(=O)(=O)c2cc(S(=O)(=O)c3ccc(Cl)cc3)ccc2Cl)c1`, the “hERG current change (%, negative = inhibition) at 1uM” value was 1.37%.

On to `O=C(Cn1cnc2ccccc2c1=O)NNC(=O)c1ccccc1`, for which the “hERG current change (%, negative = inhibition) at 1uM” value is 16%.

Take `CCc1cc(C(c2ccncc2)N2CCN(C)CC2)c(NC(=O)c2ccccc2)s1` (centres unmarked): the “hERG current change (%, negative = inhibition) at 1uM” value is reported as -29.2%. To `CCOCCCNC(=O)CN(Cc1ccc(Cl)cc1)S(C)(=O)=O` belongs 8.42%; to `COc1cc(-c2nc3n(n2)C(c2ccc(F)cc2)C2=C(CCCC2=O)N3)cc(OC)c1OC` (centres unmarked), 3.59%; to `Cc1cccc(NC(=O)CN(C)S(=O)(=O)c2cccc3cccnc23)c1`, -3.6%. To `COc1ccc(CN2CC(C(=O)N3CC(C)CC(C)C3)CC2=O)cc1` (centres unmarked) belongs 19.8%; to `S=c1nc(C23CC4CC(CC(C4)C2)C3)nc2sccn12`, 5.69%; to `CCOCCCn1c(SCC(=O)Nc2ccccc2OC)nc2ccccc2c1=O`, -23.9%. Turning to `Cc1c(C(=O)c2ccc(Cl)cc2Cl)cnc2cc3c(cc12)OCO3`, the “hERG current change (%, negative = inhibition) at 1uM” value is reported as 14.6%.

On to `Cn1c(Cn2c(=O)sc3ccccc32)nnc1SCc1cccc(F)c1`, for which the “hERG current change (%, negative = inhibition) at 1uM” value is 8.87%.

Consider `CCCn1c2c(c(O)c(C(=O)NC)c1=O)CCCC2`, for which the “hERG current change (%, negative = inhibition) at 1uM” value worked out at 17.6%.

For the compound `CCn1c(Cc2ccccc2)nnc1SCC(=O)Nc1ccccc1N1CCOCC1`, the “hERG current change (%, negative = inhibition) at 1uM” value is recorded as -1.98%. For `Cc1c(Br)cnn1C(C)C(=O)N1CCN(c2ccc(F)cc2)CC1` (centres unmarked), the “hERG current change (%, negative = inhibition) at 1uM” value is -9.4%. For the compound `CCOC(=O)c1c(N)n(CCN2CCCCC2)c2nc3ccccc3nc12`, the “hERG current change (%, negative = inhibition) at 1uM” value worked out at 1.93%. To `CN(C)C(=O)c1nc2ccc(Cl)cn2c1CNCc1cccc(OC(F)(F)F)c1` belongs 9.52%. Turning to `CCC(C)(C)NC(=O)C(OC(=O)c1ccco1)c1ccc(OC)cc1` (centres unmarked), the “hERG current change (%, negative = inhibition) at 1uM” value is 7.84%.

As for `CC(C)NC(=O)N1CCN(c2ccncc2S(=O)(=O)N2CCCCC2)CC1`, the “hERG current change (%, negative = inhibition) at 1uM” value came out at 15.3%. To `COc1ccc2c(c1)C(=O)[C@H](O)[C@@H](c1ccc(OC)c(Br)c1)O2` belongs 12.3%; to `Cc1ccccc1/C=N/Nc1nc2ccccc2[nH]1`, 10%; to `CN1CCN(CCCC(=O)c2ccc(C3CCCC3)cc2)CC1.Cl.O`, -6.29%. Turning to `CCN(CC)c1ccc(S(=O)(=O)N2CCCCC2)cc1NC(=O)C1CCC1`, the “hERG current change (%, negative = inhibition) at 1uM” value amounted to 3.99%.

For the compound `Cc1cccc(NC(=O)Nc2cccc(Oc3c(F)c(F)c(F)c(F)c3F)c2)c1`, the “hERG current change (%, negative = inhibition) at 1uM” value was 11.1%.

As for `CCCC(=O)NCCc1ccc(S(N)(=O)=O)cc1`, the “hERG current change (%, negative = inhibition) at 1uM” value came out at 10.7%. To `O=C(Cc1ccc(Cl)cc1)Nc1cccc(-c2nnc(-c3ccco3)o2)c1` belongs 4.98%. To `c1cncc(CSc2nnc3ccc(-c4ccncc4)nn23)c1` belongs -14.9%; to `COC(=O)CCC(=O)N1CCCC(CNS(=O)(=O)c2ccc(OC)cc2)C1` (centres unmarked), 8.55%; to `Cc1c(C(=O)N2CCN(c3ccc(F)cc3)CC2)oc2c1C(=O)CCC2`, -1.98%.
